The supplement of paper PMC8728848
Some of the results follow.

Experiments:
Test in all cases: glycan array binding signal (z-score within array); higher = stronger binding
Settings in all cases: glycan notation: IUPAC condensed, linker removed
[1] = biological target: GalNAc(b1-4)Gal(b1-4)Glc
Procedure, shortened: (§1)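 Glycan array data were curated from 3228 arrays in the Consortium for Functional Glycomics database and kept only where the protein sequence was available. Glycan names were converted to IUPAC-condensed notation, and columns mapping to the same glycan were averaged. The binding signal is a within-array Z-score, averaged across arrays of the same protein sequence at different concentrations or buffers and across linkers. Negative Z-scores can be read as non-binding.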

[2] = biological target: GalNAc(b1-4)Gal3S(b1-4)Glc
Procedure, shortened: as §1

[3] = biological target: GalNAc3S(b1-4)Gal3S(b1-4)Glc
Procedure, shortened: as §1

[4] = biological target: Glc(a1-2)Glc
Procedure, shortened: as §1

[5] = biological target: Glc(a1-2)Glc(a1-3)Glc(a1-3)Man(a1-2)Man(a1-2)Man(a1-3)[Man(a1-3)[Man(a1-6)]Man(a1-6)]Man(b1-4)GlcNAc
Procedure, shortened: as §1

[6] = biological target: Glc(a1-3)Glc
Procedure, shortened: as §1

[7] = biological target: Glc(a1-3)Glc(a1-3)Man(a1-2)Man(a1-2)Man(a1-3)[Man(a1-2)Man(a1-3)[Man(a1-2)Man(a1-6)]Man(a1-6)]Man(b1-4)GlcNAc(b1-4)GlcNAc
Procedure, shortened: as §1

[8] = biological target: Glc(a1-3)Glc(a1-3)Man(a1-2)Man(a1-2)Man(a1-3)[Man(a1-3)[Man(a1-6)]Man(a1-6)]Man(b1-4)GlcNAc
Procedure, shortened: as §1

[9] = biological target: Glc(a1-3)Man(a1-2)Man(a1-2)Man(a1-3)[Man(a1-2)Man(a1-3)[Man(a1-2)Man(a1-6)]Man(a1-6)]Man(b1-4)GlcNAc(b1-4)GlcNAc
Procedure, shortened: as §1

[10] = biological target: Glc(a1-4)Glc
Procedure, shortened: as §1

[11] = biological target: Glc(a1-4)Glc(a1-4)Glc
Procedure, shortened: as §1

[12] = biological target: Glc(a1-4)Glc(a1-4)Glc(a1-4)Glc
Procedure, shortened: as §1

[13] = biological target: Glc(a1-4)Glc(a1-4)Glc(a1-4)Glc(a1-4)Glc
Procedure, shortened: as §1

[14] = biological target: Glc(a1-4)Glc(a1-4)Glc(a1-4)Glc(a1-4)Glc(a1-4)Glc
Procedure, shortened: as §1

[15] = biological target: Glc(a1-4)Glc(a1-4)Glc(a1-4)Glc(a1-4)Glc(a1-4)Glc(a1-4)Glc
Procedure, shortened: as §1

[16] = biological target: Glc(a1-4)Glc(a1-4)Glc(a1-4)Glc(a1-4)Glc(a1-4)Glc(a1-4)Glc(a1-4)Glc
Procedure, shortened: as §1

[17] = biological target: Glc(a1-4)Glc(a1-4)Glc(a1-4)Glc(a1-4)Glc(a1-4)Glc(a1-4)Glc(a1-4)Glc(a1-4)Glc
Procedure, shortened: as §1

[18] = biological target: Glc(a1-4)Glc(a1-4)Glc(a1-4)Glc(a1-4)Glc(a1-4)Glc(a1-4)Glc(a1-4)Glc(a1-4)Glc(a1-4)Glc
Procedure, shortened: as §1

[19] = biological target: Glc(a1-4)Glc(a1-4)Glc(a1-4)Glc(a1-4)Glc(a1-4)Glc(a1-4)Glc(a1-4)Glc(a1-4)Glc(a1-4)Glc(a1-4)Glc
Procedure, shortened: as §1

[20] = biological target: Glc(a1-4)Glc(a1-4)Glc(a1-4)Glc(a1-4)Glc(a1-4)Glc(a1-4)Glc(a1-4)Glc(a1-4)Glc(a1-4)Glc(a1-4)Glc(a1-4)Glc
Procedure, shortened: as §1

[21] = biological target: Glc(a1-4)Glc(a1-4)Glc(a1-4)Glc(a1-4)Glc(a1-4)Glc(a1-4)Glc(a1-4)Glc(a1-4)Glc(a1-4)Glc(a1-4)Glc(a1-4)Glc(a1-4)Glc
Procedure, shortened: as §1

[22] = biological target: Glc(a1-6)Glc
Procedure, shortened: as §1

[23] = biological target: Glc(a1-6)Glc(a1-4)Glc(a1-4)Glc
Procedure, shortened: as §1

[24] = biological target: Glc(a1-6)Glc(a1-6)Glc
Procedure, shortened: as §1

[25] = biological target: Glc(a1-6)Glc(a1-6)Glc(a1-6)Glc
Procedure, shortened: as §1

[26] = biological target: Glc(a1-6)Glc(a1-6)Glc(a1-6)Glc(a1-6)Glc
Procedure, shortened: as §1

[27] = biological target: Glc(a1-6)Glc(a1-6)Glc(a1-6)Glc(a1-6)Glc(a1-6)Glc
Procedure, shortened: as §1

[28] = biological target: Glc(a1-6)Glc(a1-6)Glc(a1-6)Glc(a1-6)Glc(a1-6)Glc(a1-6)Glc
Procedure, shortened: as §1

[29] = biological target: Glc(a1-6)Glc(a1-6)Glc(a1-6)Glc(a1-6)Glc(a1-6)Glc(a1-6)Glc(a1-6)Glc
Procedure, shortened: as §1

[30] = biological target: Glc(a1-6)Glc(a1-6)Glc(a1-6)Glc(a1-6)Glc(a1-6)Glc(a1-6)Glc(a1-6)Glc(a1-6)Glc
Procedure, shortened: as §1

[31] = biological target: Glc(a1-6)Glc(a1-6)Glc(a1-6)Glc(a1-6)Glc(a1-6)Glc(a1-6)Glc(a1-6)Glc(a1-6)Glc(a1-6)Glc
Procedure, shortened: as §1

[32] = biological target: Glc(a1-6)Glc(a1-6)Glc(a1-6)Glc(a1-6)Glc(a1-6)Glc(a1-6)Glc(a1-6)Glc(a1-6)Glc(a1-6)Glc(a1-6)Glc
Procedure, shortened: as §1

[33] = biological target: Glc(a1-6)Glc(a1-6)Glc(a1-6)Glc(a1-6)Glc(a1-6)Glc(a1-6)Glc(a1-6)Glc(a1-6)Glc(a1-6)Glc(a1-6)Glc(a1-6)Glc
Procedure, shortened: as §1

[34] = biological target: Glc(a1-6)Glc(a1-6)Glc(a1-6)Glc(a1-6)Glc(a1-6)Glc(a1-6)Glc(a1-6)Glc(a1-6)Glc(a1-6)Glc(a1-6)Glc(a1-6)Glc(a1-6)Glc
Procedure, shortened: as §1

[35] = biological target: Glc(b1-2)Glc
Procedure, shortened: as §1

[36] = biological target: Glc(b1-3)Glc
Procedure, shortened: as §1

[37] = biological target: Glc(b1-3)Glc(b1-3)Glc
Procedure, shortened: as §1

[38] = biological target: Glc(b1-3)Glc(b1-3)Glc(b1-3)Glc
Procedure, shortened: as §1

[39] = biological target: Glc(b1-3)Glc(b1-3)Glc(b1-3)Glc(b1-3)Glc
Procedure, shortened: as §1

[40] = biological target: Glc(b1-3)Glc(b1-3)Glc(b1-3)Glc(b1-3)Glc(b1-3)Glc
Procedure, shortened: as §1

[41] = biological target: Glc(b1-3)Glc(b1-3)Glc(b1-3)Glc(b1-3)Glc(b1-3)Glc(b1-3)Glc
Procedure, shortened: as §1

[42] = biological target: Glc(b1-3)Glc(b1-3)Glc(b1-3)Glc(b1-3)Glc(b1-3)Glc(b1-3)Glc(b1-3)Glc
Procedure, shortened: as §1

[43] = biological target: Glc(b1-3)Glc(b1-3)Glc(b1-3)Glc(b1-3)Glc(b1-3)Glc(b1-3)Glc(b1-3)Glc(b1-3)Glc
Procedure, shortened: as §1

[44] = biological target: Glc(b1-3)Glc(b1-3)Glc(b1-3)Glc(b1-3)Glc(b1-3)Glc(b1-3)Glc(b1-3)Glc(b1-3)Glc(b1-3)Glc
Procedure, shortened: as §1

[45] = biological target: Glc(b1-3)Glc(b1-3)Glc(b1-3)Glc(b1-3)Glc(b1-3)Glc(b1-3)Glc(b1-3)Glc(b1-3)Glc(b1-3)Glc(b1-3)Glc
Procedure, shortened: as §1

Measured: glycan array binding signal (z-score)

B1: MIC4-A5 (Toxoplasma gondii), Q9XZH7 (protein)
chain: SPDFHDEVECVHTGNIGSKAQTIGEVKRASSLSECRARCQAEKECSHYTYNVKSGLCYPKRGKPQFYKYLGDMTGSRTCDTS
-0.316: [22]
-0.32: [34] | [35]
-0.197: [2]
-0.319: [1] | [7]
-0.306: [6] | [20]
-0.299: [10]
-0.305: [18] | [21]
-0.313: [11] | [13]
-0.309: [19]
-0.283: [14]
-0.303: [16]
-0.307: [12]
-0.317: [17] | [23]
-0.301: [15] | [36]
-0.323: all other assays above
